Experimental findings from PMC7819943, “Rice protein-binding microarrays: a tool to detect cis-acting elements near promoter regions in rice” are described below.

Some of the results follow.

The experiment addresses T1, OsWOX13 (Oryza sativa, UniProt Q5QMM3 1-267).
T1 sequence: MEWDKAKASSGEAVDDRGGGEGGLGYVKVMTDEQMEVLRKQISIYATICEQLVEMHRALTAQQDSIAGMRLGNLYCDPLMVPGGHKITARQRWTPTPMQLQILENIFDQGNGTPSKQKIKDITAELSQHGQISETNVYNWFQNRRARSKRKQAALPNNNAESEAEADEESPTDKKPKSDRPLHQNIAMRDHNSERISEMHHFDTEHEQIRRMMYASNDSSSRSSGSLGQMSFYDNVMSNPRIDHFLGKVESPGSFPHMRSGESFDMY
The experiment is described as follows: protein-binding microarray (RPBM); PBS, 2% BSA, 51.3 ng/ul salmon testes DNA, 50 uM zinc acetate, 200 nM TF, 25 C, 1 h; high values mean tight binding. Conditions: protein: recombinant; tags: N-terminal polyhistidine and DsRed monomer fusion (pET32a); label: CyDye5-dUTP incorporated in the synthesized complementary strand; 3' TTTTT single-stranded linker to array surface; dsDNA, one strand shown. In outline: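 In PBS with 2% BSA, salmon testes DNA and 50 µM zinc acetate, 200 nM protein was incubated on a custom Agilent array at 25 °C for 1 h and then washed off. The array had been made double-stranded by primer extension with Cy5-dUTP and blocked with 2% BSA. The proteins were transcription factors fused N-terminally to polyhistidine and DsRed, expressed in E. coli BL21-CodonPlus and purified on Ni–NTA. The binding signal is per-feature fluorescence intensity (arbitrary units) from an Axon 4000B scanner.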
Regarding “AAAGCATTCATGTTAATTTTCTCCTAACTCAAATCGAATGCGGAGTCACCTAGTGCAG”, the binding signal is 3260 fluorescence intensity (a.u.).
The figure for “GTATGATTGCAAATAAAATAATTTATAAATAATATATATACGGAGTCACCTAGTGCAG” is 3650 fluorescence intensity (a.u.); for “GCTCCAAAACTCTTATGATTGAATCGTTACATAGGAATTCCGGAGTCACCTAGTGCAG” it is 4380 fluorescence intensity (a.u.); for “GTGAGGCCAAGATTGACTTATTGGAAGGAAGGCTTGGAAGCGGAGTCACCTAGTGCAG” it is 4590 fluorescence intensity (a.u.).
As for “CTTATATATAAACTAACTGGAACATTTCCAATGAAACAGTCGGAGTCACCTAGTGCAG”, the figure is 3810 fluorescence intensity (a.u.); as for “TAAAATGAGCATTAATCAATCGGTGATAGGTCTGGATGTACGGAGTCACCTAGTGCAG”, 15400 fluorescence intensity (a.u.); as for “CCGAATTTCTATTATTTCTTAATTGTATTTCTATATGGACCGGAGTCACCTAGTGCAG”, 7410 fluorescence intensity (a.u.).
The figure for “CTAATGTTTATAAACCTAAAGTTTATAGACCCAAAGTTTACGGAGTCACCTAGTGCAG” is 9880 fluorescence intensity (a.u.).
As to “ACACTGATACTGTAACATCAATTATAGGATGAGTGAAAACCGGAGTCACCTAGTGCAG”, the binding signal was 3300 fluorescence intensity (a.u.).
For “GGTTACCAACTAATTTGATATATAAATGAGTTTTGGGGTTCGGAGTCACCTAGTGCAG”, the binding signal was 13200 fluorescence intensity (a.u.).
The figure for “CACGATAATTTTCGTCGCACAAATCGTCGCCTCGTACGTGCGGAGTCACCTAGTGCAG” is 9530 fluorescence intensity (a.u.); for “TTAATTAGATGCTCATATAAATATGGTGAAACCTGCATGCCGGAGTCACCTAGTGCAG” it is 21500 fluorescence intensity (a.u.); for “CGAAATATTTCAATAAATTAGTACCAAATTCTTATTGCAACGGAGTCACCTAGTGCAG” it is 3310 fluorescence intensity (a.u.).
As for “CGGATTACTTATCGAAATTTTGATGATTTCGATCGGAATTCGGAGTCACCTAGTGCAG”, the figure is 4860 fluorescence intensity (a.u.).
The figure for “CTAATTAACCACTTCCCAACCTTGGTAGGAAAACCTACGCCGGAGTCACCTAGTGCAG” is 4900 fluorescence intensity (a.u.); for “CAACTAACAATCAACTGACGGGAGGGGTATGGAAGGGATCCGGAGTCACCTAGTGCAG” it is 10400 fluorescence intensity (a.u.).
For “TTTAATTATTCTGGGATGGAGGGAGTACATCGAAATCTTACGGAGTCACCTAGTGCAG”, the binding signal was 8800 fluorescence intensity (a.u.).
As for “TAAAATTATGTAACTCTAAATTTATCATCACCCCAAGCATCGGAGTCACCTAGTGCAG”, the figure is 16500 fluorescence intensity (a.u.); as for “ATGTAATTTTATATCCAATAAAATTAAATTTGATATTTTACGGAGTCACCTAGTGCAG”, 10200 fluorescence intensity (a.u.); as for “AGGCTGCAGTGGATTGATGGATGGATGGGGATTCATTTGTCGGAGTCACCTAGTGCAG”, 5060 fluorescence intensity (a.u.).
On to “ATTAATTTTCTCGCTGGTAATTAACTTGCATGTGCACGTCCGGAGTCACCTAGTGCAG”, for which the binding signal was 11800 fluorescence intensity (a.u.).
For the sequence “CGACGATGTAAATTTATACTTTCGTTCTTCTGAAGTTGGCCGGAGTCACCTAGTGCAG”, the binding signal was 3850 fluorescence intensity (a.u.).
As to “AATTACCAAACTGAATAATGAATGAACGAACCATTACAGGCGGAGTCACCTAGTGCAG”, the binding signal was 3300 fluorescence intensity (a.u.).
Consider “GCAAATTTGGATTGTGCCTCACTTTAGTGAGTTGATGACACGGAGTCACCTAGTGCAG”, for which the binding signal is 5730 fluorescence intensity (a.u.).
In the case of “GTCCAAAATTAGTTTTACTAATCTATGTTGTTGGACTTAACGGAGTCACCTAGTGCAG”, the binding signal was 5520 fluorescence intensity (a.u.).
Turning to “ATAATGGAATTAAATCCAGCCTATTGTGAGACACGTGTAGCGGAGTCACCTAGTGCAG”, the binding signal is 4690 fluorescence intensity (a.u.).
The figure for “GCTACATGCTAATTGTGTATATCTAACATGCGCTGACGGCCGGAGTCACCTAGTGCAG” is 3710 fluorescence intensity (a.u.); for “TAGCTGGTTGACAGATTCATCAGTGATGTGGATCAACATGCGGAGTCACCTAGTGCAG” it is 3670 fluorescence intensity (a.u.); for “GGTGAATAATTATAGAACCGAAGGTTGCATGACCTCAACTCGGAGTCACCTAGTGCAG” it is 4430 fluorescence intensity (a.u.).
On to “ACCTTCAAACAGCAACAAATTGACCCGCACCACTGGGACACGGAGTCACCTAGTGCAG”, for which the binding signal is 4920 fluorescence intensity (a.u.).
Consider “GATCGAAATAGACTGAACTCGCCTCAGGTTCGTTCCACCACGGAGTCACCTAGTGCAG”, for which the binding signal is 4680 fluorescence intensity (a.u.).
The figure for “ATAATGGCATAATTTAAATTTTACAAAATACTTATGACACCGGAGTCACCTAGTGCAG” is 12600 fluorescence intensity (a.u.); for “AAGGTTGAAAAGTTGATTGAAGAGCATTAAACTTAAACCTCGGAGTCACCTAGTGCAG” it is 29200 fluorescence intensity (a.u.); for “AAAATCATTAGTGTTAACAAAGTTTAGATGTTGGAAGCATCGGAGTCACCTAGTGCAG” it is 5690 fluorescence intensity (a.u.).
Take “ACTTAATTAACTATACGTTACTAGTTTCTCGTTTTACATGCGGAGTCACCTAGTGCAG”: the binding signal is 48000 fluorescence intensity (a.u.).
The figure for “AACGCAATCAGTGGGAGATCAATCGCAAAATCACCATCATCGGAGTCACCTAGTGCAG” is 11000 fluorescence intensity (a.u.); for “ATACATAACTCACCAATTATAGAACCAACAATTACATAACCGGAGTCACCTAGTGCAG” it is 4630 fluorescence intensity (a.u.).
Regarding “TATTAAATATAGATTAATTACAAAACCTATTCCATAATCTCGGAGTCACCTAGTGCAG”, the binding signal is 9640 fluorescence intensity (a.u.).
Regarding “ACCCACCATCAATCAGCTCTCACACAAGCCCAATACGGCACGGAGTCACCTAGTGCAG”, the binding signal is 11600 fluorescence intensity (a.u.).
As for “TGTAACAGATAAACTGATGAAGGAACTTGTGATAGAAACTCGGAGTCACCTAGTGCAG”, the figure is 8670 fluorescence intensity (a.u.); as for “ATTAGATAATTATCGTTAAACTGTTATCCCTTCTTCCTATCGGAGTCACCTAGTGCAG”, 50300 fluorescence intensity (a.u.); as for “CGCTCGATTATGTGGGATTAGGTAGATGAGGGCGGCGCTGCGGAGTCACCTAGTGCAG”, 3420 fluorescence intensity (a.u.).
